Assay results taken from the supplement of paper PMC8728848.
The other results are listed elsewhere or left out.

Columns and labels:
Assay in all cases: glycan array binding signal (z-score within array); higher = stronger binding
Conditions in all cases: glycan notation: IUPAC condensed, linker removed
Fuc(a1-2)Gal = target: Fuc(a1-2)Gal
Method in brief: (§1)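 Columns mapping to the same glycan were averaged after glycan names were converted to IUPAC-condensed notation. The data come from 3228 arrays in the Consortium for Functional Glycomics database, limited to those with an available protein sequence. Binding is reported as a within-array Z-score averaged across arrays of one protein sequence and across linkers.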

Fuc(a1-2)Gal(b1-3)GalNAc = target: Fuc(a1-2)Gal(b1-3)GalNAc
Method in brief: as §1

[1] = target: Fuc(a1-2)Gal(b1-3)GalNAc(a1-3)[Fuc(a1-2)]Gal(b1-4)Glc
Method in brief: as §1

[2] = target: Fuc(a1-2)Gal(b1-3)GalNAc(a1-3)[Fuc(a1-2)]Gal(b1-4)GlcNAc
Method in brief: as §1

[3] = target: Fuc(a1-2)Gal(b1-3)GalNAc(b1-3)Gal
Method in brief: as §1

[4] = target: Fuc(a1-2)Gal(b1-3)GalNAc(b1-3)Gal(a1-4)Gal(b1-4)Glc
Method in brief: as §1

[5] = target: Fuc(a1-2)Gal(b1-3)GalNAc(b1-3)Gal(b1-4)Glc
Method in brief: as §1

[6] = target: Fuc(a1-2)Gal(b1-3)GalNAc(b1-4)[Neu5Ac(a2-3)]Gal(b1-4)Glc
Method in brief: as §1

Fuc(a1-2)Gal(b1-3)GlcNAc = target: Fuc(a1-2)Gal(b1-3)GlcNAc
Method in brief: as §1

[7] = target: Fuc(a1-2)Gal(b1-3)GlcNAc(b1-2)Man(a1-3)[Fuc(a1-2)Gal(b1-3)GlcNAc(b1-2)Man(a1-6)]Man(b1-4)GlcNAc(b1-4)GlcNAc
Method in brief: as §1

[8] = target: Fuc(a1-2)Gal(b1-3)GlcNAc(b1-2)Man(a1-3)[Fuc(a1-2)Gal(b1-3)GlcNAc(b1-2)Man(a1-6)]Man(b1-4)GlcNAc(b1-4)[Fuc(a1-6)]GlcNAc
Method in brief: as §1

[9] = target: Fuc(a1-2)Gal(b1-3)GlcNAc(b1-3)Gal(b1-4)Glc
Method in brief: as §1

[10] = target: Fuc(a1-2)Gal(b1-3)GlcNAc(b1-3)GalNAc
Method in brief: as §1

[11] = target: Fuc(a1-2)Gal(b1-3)GlcNAc(b1-3)[Fuc(a1-2)Gal(b1-3)GlcNAc(b1-6)]GalNAc
Method in brief: as §1

[12] = target: Fuc(a1-2)Gal(b1-3)GlcNAc(b1-3)[Gal(b1-4)GlcNAc(b1-6)]Gal(b1-4)Glc
Method in brief: as §1

[13] = target: Fuc(a1-2)Gal(b1-3)GlcNAc(b1-3)[Neu5Ac(a2-6)Gal(b1-4)GlcNAc(b1-6)]Gal(b1-4)Glc
Method in brief: as §1

[14] = target: Fuc(a1-2)Gal(b1-3)GlcNAc6S
Method in brief: as §1

[15] = target: Fuc(a1-2)Gal(b1-3)[Fuc(a1-4)]GlcNAc
Method in brief: as §1

[16] = target: Fuc(a1-2)Gal(b1-3)[Fuc(a1-4)]GlcNAc(b1-2)Man(a1-3)[Fuc(a1-2)Gal(b1-3)[Fuc(a1-4)]GlcNAc(b1-2)Man(a1-3)]Man(b1-4)GlcNAc(b1-4)GlcNAc
Method in brief: as §1

[17] = target: Fuc(a1-2)Gal(b1-3)[Fuc(a1-4)]GlcNAc(b1-2)Man(a1-3)[Fuc(a1-2)Gal(b1-3)[Fuc(a1-4)]GlcNAc(b1-2)Man(a1-6)]Man(b1-4)GlcNAc(b1-4)[Fuc(a1-6)]GlcNAc(b1-4)[Fuc(a1-6)]GlcNAc
Method in brief: as §1

[18] = target: Fuc(a1-2)Gal(b1-3)[Fuc(a1-4)]GlcNAc(b1-3)[Fuc(a1-3)[Gal(b1-4)]GlcNAc(b1-6)]Gal(b1-4)Glc
Method in brief: as §1

[19] = target: Fuc(a1-2)Gal(b1-3)[Fuc(a1-4)]GlcNAc(b1-3)[Gal(b1-4)GlcNAc(b1-6)]Gal(b1-4)Glc
Method in brief: as §1

[20] = target: Fuc(a1-2)Gal(b1-4)Fuc(a1-3)]GlcNAc(b1-2)Man(a1-3)[Fuc(a1-2)Gal(b1-4)[Fuc(a1-3)]GlcNAc(b1-2)Man(a1-6)]Man(b1-4)GlcNAc(b1-4)GlcNAc
Method in brief: as §1

Fuc(a1-2)Gal(b1-4)Glc = target: Fuc(a1-2)Gal(b1-4)Glc
Method in brief: as §1

Fuc(a1-2)Gal(b1-4)Glc6S = target: Fuc(a1-2)Gal(b1-4)Glc6S
Method in brief: as §1

Fuc(a1-2)Gal(b1-4)GlcNAc = target: Fuc(a1-2)Gal(b1-4)GlcNAc
Method in brief: as §1

[21] = target: Fuc(a1-2)Gal(b1-4)GlcNAc(b1-2)Man
Method in brief: as §1

[22] = target: Fuc(a1-2)Gal(b1-4)GlcNAc(b1-2)Man(a1-3)[Fuc(a1-2)Gal(b1-4)GlcNAc(b1-2)Man(a1-6)]Man(b1-4)GlcNAc(b1-4)GlcNAc
Method in brief: as §1

[23] = target: Fuc(a1-2)Gal(b1-4)GlcNAc(b1-2)Man(a1-3)[Fuc(a1-2)Gal(b1-4)GlcNAc(b1-2)Man(a1-6)]Man(b1-4)GlcNAc(b1-4)[Fuc(a1-6)]GlcNAc
Method in brief: as §1

[24] = target: Fuc(a1-2)Gal(b1-4)GlcNAc(b1-2)[Fuc(a1-2)Gal(b1-4)GlcNAc(b1-4)]Man(a1-3)[Fuc(a1-2)Gal(b1-4)GlcNAc(b1-2)Man(a1-6)]Man(b1-4)GlcNAc(b1-4)GlcNAc
Method in brief: as §1

B1: Epa7 (Candida glabrata), Q6DTM6_CANGB (protein)
chain: MGSSHHHHHHSSGLVPRGSHMKDDYSSFLSNNNLGWTDPTEFPLGCSPNVTTPKNGLSMELYSYDLRKNGSYPCWDAAYLDPNYPRTGYKSHRLLAKVDGVTGNINFYYHATKGCTPEIDHLPASYNYPKPLTMTNFTMLLYGYFKPKVTGYHTFTISADDLLFVNFGAGNAFDCCKRESSADDFGNYQAYAVWGSQTAKDDLTVHLDAGLYYPIRIFFNNREYDAELSLTLKTESDSNPVIDFSDYFYSFDDTKDGCPGLVSYDTS
glycan array binding signal (z-score) (Fuc(a1-2)Gal): -0.256 | glycan array binding signal (z-score) (Fuc(a1-2)Gal(b1-3)GalNAc): -0.169 | glycan array binding signal (z-score) [1]: -0.214 | glycan array binding signal (z-score) [2]: 0.402 | glycan array binding signal (z-score) [3]: -0.144 | glycan array binding signal (z-score) [4]: -0.195 | glycan array binding signal (z-score) [5]: -0.272 | glycan array binding signal (z-score) [6]: -0.072 | glycan array binding signal (z-score) (Fuc(a1-2)Gal(b1-3)GlcNAc): -0.221 | glycan array binding signal (z-score) [7]: -0.235 | glycan array binding signal (z-score) [8]: -0.234 | glycan array binding signal (z-score) [9]: -0.233 | glycan array binding signal (z-score) [10]: -0.23 | glycan array binding signal (z-score) [11]: -0.137 | glycan array binding signal (z-score) [12]: -0.125 | glycan array binding signal (z-score) [13]: -0.206 | glycan array binding signal (z-score) [14]: -0.09 | glycan array binding signal (z-score) [15]: -0.254 | glycan array binding signal (z-score) [16]: -0.161 | glycan array binding signal (z-score) [17]: -0.188 | glycan array binding signal (z-score) [18]: -0.179 | glycan array binding signal (z-score) [19]: -0.125 | glycan array binding signal (z-score) [20]: -0.114 | glycan array binding signal (z-score) (Fuc(a1-2)Gal(b1-4)Glc): -0.211 | glycan array binding signal (z-score) (Fuc(a1-2)Gal(b1-4)Glc6S): -0.249 | glycan array binding signal (z-score) (Fuc(a1-2)Gal(b1-4)GlcNAc): -0.255 | glycan array binding signal (z-score) [21]: -0.228 | glycan array binding signal (z-score) [22]: -0.235 | glycan array binding signal (z-score) [23]: -0.234 | glycan array binding signal (z-score) [24]: -0.23
